{"source": "the supplement of paper PMC11417369", "note": "The list shows a part of the results.", "data": [{"tested_on": "PfSIP2 AP2 domain 1 (GST-tagged)", "experiment": "gcPBM binding intensity (ln(normalized median fluorescence intensity)); higher = stronger DNA binding", "method_in_brief": "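Binding intensity is the highest Masliner-normalised natural-log median intensity over replicate spots in either probe orientation. To obtain it, GST-tagged P. falciparum DNA-binding domains made in E. coli were incubated for 1 h on an Agilent 4 × 180k array of primer-extended double-stranded 36-bp intergenic genomic probes plus negative controls. Detection used Alexa488 anti-GST antibody with scanning at 488 nm.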", "values": [{"sequence": "TATAATAATTCTTTGAGTACTTAAACATGTGAAATT [XGTACX_site955]", "gcPBM binding intensity (ln)": 7.08}, {"sequence": "TATCATTTCTAAAAAGGTACACATACATCATATATT [XGTACX_site3386]", "gcPBM binding intensity (ln)": 6.93}, {"sequence": "ATATTAATATATGTGGCACACATGTGGAGTCCTATT [CACACA_site213]", "gcPBM binding intensity (ln)": 6.99}, {"sequence": "GTGTAGTAAAATCGATGTACGTACAAATCAATTATT [XGTACX_site7662]", "gcPBM binding intensity (ln)": 7.03}, {"sequence": "AAAAAAATGAAGAAATGTACAAATTTCATTAATTTT [XGTACX_site354]", "gcPBM binding intensity (ln)": 6.8}, {"sequence": "TATATATGTAAATGCACACATATGTGGATATACTTA [CACACA_site1699]", "gcPBM binding intensity (ln)": 7.14}, {"sequence": "CATTTTTACCGGTACTGTACATAAAAAAAAAAAAAG [XGTACX_site1548]", "gcPBM binding intensity (ln)": 7.43}, {"sequence": "TTATATGTTTTACAACGTACACAAAAAAAACTTATA [XGTACX_site4413]", "gcPBM binding intensity (ln)": 7}, {"sequence": "GCAGGCTAAAAAATTACACACGAAAAAAATGAATTT [CACACA_site3417]", "gcPBM binding intensity (ln)": 6.83}, {"sequence": "CATATATGGTTATATACATGCACCATTATATTATTA [TGCATGCA_site520]", "gcPBM binding intensity (ln)": 10.3}, {"sequence": "TATATAATATTTTTCACACACCATTTCCTTAAACAC [CACACA_site4862]", "gcPBM binding intensity (ln)": 7.32}, {"sequence": "TAAAAAAAAAGAAGGGGTACATGGATAATATATAAA [XGTACX_site8386]", "gcPBM binding intensity (ln)": 6.97}, {"sequence": "TGTATAACCTGTGTTACACACATTATGATTTATATA [CACACA_site525]", "gcPBM binding intensity (ln)": 6.86}, {"sequence": "TTGATAATTATATAATGTACTCATTATAATATGATG [XGTACX_site7813]", "gcPBM binding intensity (ln)": 6.95}, {"sequence": "TATAAAAAAAAAAAAAGTACTAACTTAAAACAATTT [XGTACX_site7969]", "gcPBM binding intensity (ln)": 6.95}, {"sequence": "TAATTAATAATAATATGTACATATTAATATATTATT [XGTACX_site6900]", "gcPBM binding intensity (ln)": 7.1}, {"sequence": "TTTTATATATATATCACACACACACCCATGTTTTAA [CACACA_site79]", "gcPBM binding intensity (ln)": 7.01}, {"sequence": "TTTATTCTCAAACACACACACATATATATATATATA [CACACA_site2895]", "gcPBM binding intensity (ln)": 8.87}, {"sequence": "TGATAAAGTAAATATACATGCGATTAGTTATATATA [TGCATGCA_site720]", "gcPBM binding intensity (ln)": 6.97}, {"sequence": "TATTTATTCTCCAACACACACACATATATTTATATA [CACACA_site7376]", "gcPBM binding intensity (ln)": 7.01}, {"sequence": "AGTTTGTCAATCAACACACACCTATTTATTATAGAT [CACACA_site7777]", "gcPBM binding intensity (ln)": 6.78}, {"sequence": "TTTTTTTTACATTCTGCACACAATTTATTTTTTTTT [CACACA_site36]", "gcPBM binding intensity (ln)": 7.12}, {"sequence": "AAAAATGAGTGACACACACACATATAAATATAAATA [CACACA_site7115]", "gcPBM binding intensity (ln)": 6.75}, {"sequence": "AAATCAAACTTTGGTGTGCACAAATATATACATATA [GTGCAC_site9986]", "gcPBM binding intensity (ln)": 9.51}, {"sequence": "GTAATTTTAAAGAAAAGTACACATTTATTAATTATT [XGTACX_site4468]", "gcPBM binding intensity (ln)": 6.72}, {"sequence": "ACATATAAATATTGTGTGCACACACATAATATATAT", "gcPBM binding intensity (ln)": 8.29}, {"sequence": "GTGTTAAATGTTTACACACAAACTTGCAATAATTAT [CACACA_site3825]", "gcPBM binding intensity (ln)": 7.12}, {"sequence": "TTGCATTTATTATACACACACAAAAAAATATATATA [CACACA_site238]", "gcPBM binding intensity (ln)": 7.62}, {"sequence": "AAAAATTATAACTAAAAAAATCACACAAAATATTTT [TGCATGCA_negctrl_site28]", "gcPBM binding intensity (ln)": 6.77}, {"sequence": "TATGTATTTAAGTTACCTGAACGTTCAGGTAAAATT [CACACA_negctrl_site1393]", "gcPBM binding intensity (ln)": 6.96}, {"sequence": "AAAATCTATAATATAACACACATATATTCTATATGG [CACACA_site7821]", "gcPBM binding intensity (ln)": 6.68}, {"sequence": "TTCCTGTTAATTACAACACACAATTCTTATTTTATG [CACACA_site6507]", "gcPBM binding intensity (ln)": 6.94}, {"sequence": "CATACATACAGACACACACACATATAAATACATACA [CACACA_site6533]", "gcPBM binding intensity (ln)": 7.22}, {"sequence": "ATTTTCAAATTCTATGCATGTGTATATTATAGATAA [TGCATGCA_site1003]", "gcPBM binding intensity (ln)": 7.16}, {"sequence": "TTAACAAAACTTTTAACACACAAAAAAAAAAAAAAA [CACACA_site6947]", "gcPBM binding intensity (ln)": 6.92}, {"sequence": "CTATAATAATAAAGTGAACACACACCGATAATATAT [CACACA_site9377]", "gcPBM binding intensity (ln)": 7.02}, {"sequence": "TTATGATATATTTGTTGTACGCTTTTTTTATGAACT [XGTACX_site573]", "gcPBM binding intensity (ln)": 7.25}, {"sequence": "GTAAGTTGTGCATTCACACACATATAAATATAAATA [CACACA_site7536]", "gcPBM binding intensity (ln)": 7.88}, {"sequence": "CATTATGTTGTAAATGCACACATACAAATACATATA [CACACA_site8380]", "gcPBM binding intensity (ln)": 7.3}, {"sequence": "AATTAAATTACTTATACACACATAAAATGCCTGTAT [CACACA_site6597]", "gcPBM binding intensity (ln)": 6.88}, {"sequence": "ATGACCCACTTTTCTGCACACATAAAAAATATATAA [CACACA_site8092]", "gcPBM binding intensity (ln)": 7.9}, {"sequence": "AACACATACATATATACACACACAAAATAATAAAAT [CACACA_site8724]", "gcPBM binding intensity (ln)": 7.24}, {"sequence": "TTTTTTCTATTGAGCACACATATCACGATTAGTACT [CACACA_site313]", "gcPBM binding intensity (ln)": 7.14}, {"sequence": "ATATATATTATTTCTACACACATATATATAATATGT [CACACA_site3374]", "gcPBM binding intensity (ln)": 7.36}, {"sequence": "GCTCAATTTTTGGGTACACACAAATGTATAATAATA [CACACA_site2388]", "gcPBM binding intensity (ln)": 7.36}, {"sequence": "CAAAGAGAAATAAACACACACAAAATAAAGAAAAAA [CACACA_site2245]", "gcPBM binding intensity (ln)": 6.73}, {"sequence": "TTCTTTTTTCAACACACACACACAAGAAAATATATA [CACACA_site9019]", "gcPBM binding intensity (ln)": 7.59}, {"sequence": "AAAAAAAAAAAAAAAACACACATATAGATTTATATA [CACACA_site7196]", "gcPBM binding intensity (ln)": 7.41}, {"sequence": "GCACTCGTAAAAAGCACACATATAAAAACATTTATA [CACACA_site322]", "gcPBM binding intensity (ln)": 7.17}, {"sequence": "TGAACAGACAAATACACACACTCAAAAAAAAAAAAG [CACACA_site7287]", "gcPBM binding intensity (ln)": 7.01}, {"sequence": "CAATGCTTTATCAATACATGCATATATATAGAAATA [TGCATGCA_site857]", "gcPBM binding intensity (ln)": 6.9}, {"sequence": "AAAAATTTTTTTTCATTTGTTTTTATTCCGTAAAAA [CACACA_negctrl_site1217]", "gcPBM binding intensity (ln)": 6.9}, {"sequence": "AATATAAAAAAAAAATGTACATATTATATATATATA [XGTACX_site5113]", "gcPBM binding intensity (ln)": 8.66}, {"sequence": "ACCGAAGGAATTTATAGTACACATCATAAATAAATT [XGTACX_site4100]", "gcPBM binding intensity (ln)": 6.97}, {"sequence": "TATAATATAAAATAATGTACTTTGAAATATGACATA [XGTACX_site3579]", "gcPBM binding intensity (ln)": 6.91}, {"sequence": "AGTTTGATTTTTTCTTATAATATATTATTATATATT [CACACA_negctrl_site376]", "gcPBM binding intensity (ln)": 7.12}, {"sequence": "TTTTTATTAATAGATATAAATATATAATATGAATGT [TGCATGCA_negctrl_site309]", "gcPBM binding intensity (ln)": 7.04}]}]}
